Kd, koff and kon data for 1 molecule are collected here from paper PMC7826336, “Kallikrein directly interacts with and activates Factor IX, resulting in thrombin generation and fibrin formation independent of Factor XI” (Proceedings of the National Academy of Sciences of the …, 2021).

For this assay, the target named is T1, kallikrein (PKa) (UniProt P03952 20-390; P03952 391-638).
T1 construct: plasma kallikrein heavy chain (four apple domains), cut product of prekallikrein; plasma kallikrein light chain (protease domain), cut product of prekallikrein; Amine-coupled to the SPR chip; also called plasma kallikrein; source: bought: Enzyme Research Laboratories
The assay is described as follows: SPR; Pioneer biosensor, COOHV chip; PMSF-treated PK (FC-1) or PKa (FC-3) immobilised by amine coupling; analytes diluted to 250 nM, OneStep gradient injection, 30 uL/min, dissociation 600 s; 22 °C; 10 mM Hepes, 140 mM NaCl, 1.5 mM CaCl2, 40 uM ZnCl2 pH 7.4; simple ka/kd 1 or 2 binding site model. The settings on record: both partners purified. Background: SPR reads the build-up and loss of mass on a sensor chip optically.

T1 sequence (P03952 20-390, chain 1 of 2): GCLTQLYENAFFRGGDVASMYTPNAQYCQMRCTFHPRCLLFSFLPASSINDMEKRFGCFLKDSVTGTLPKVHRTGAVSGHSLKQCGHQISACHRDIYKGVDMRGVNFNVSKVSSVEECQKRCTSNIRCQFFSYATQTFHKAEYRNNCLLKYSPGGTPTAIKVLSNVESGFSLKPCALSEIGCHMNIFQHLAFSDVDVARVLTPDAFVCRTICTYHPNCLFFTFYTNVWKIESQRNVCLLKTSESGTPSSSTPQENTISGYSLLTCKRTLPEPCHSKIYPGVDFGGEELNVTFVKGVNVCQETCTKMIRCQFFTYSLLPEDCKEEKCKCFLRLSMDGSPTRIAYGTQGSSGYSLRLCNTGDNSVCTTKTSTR
T1 sequence (P03952 391-638, chain 2 of 2): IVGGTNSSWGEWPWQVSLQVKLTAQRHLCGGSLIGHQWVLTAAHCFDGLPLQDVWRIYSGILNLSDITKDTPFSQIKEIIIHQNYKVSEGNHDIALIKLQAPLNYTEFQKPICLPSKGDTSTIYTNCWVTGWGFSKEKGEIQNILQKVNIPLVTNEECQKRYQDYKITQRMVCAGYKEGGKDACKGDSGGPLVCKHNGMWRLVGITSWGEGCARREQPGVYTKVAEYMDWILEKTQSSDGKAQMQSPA

B1: Factor IX (FIX) (natural protein)
chain: not shown
notes: coagulation factor IX, zymogen; also called zymogen FIX; source: bought: Haematologic Industries
A word on the Kd: it is the equilibrium constant for the complex coming apart. A higher Kd goes with lower affinity. In general, koff refers to the first-order rate constant of dissociation. A high value points to a short-lived complex. As usually defined, the kon is a measure of how fast the partners come together. A high value points to faster complex formation. For B1, the equilibrium dissociation constant (Kd) amounted to 1.7 nM, the koff was 0.000228 s⁻¹ and the on-rate (kon) turned out to be 134000 M⁻¹ s⁻¹.
